# Screen size: about 110,000 compounds; about 40 (0.04%) were called active. The shares of active, inactive and inconclusive entries below differ from those in the screen. The call rests on the fitted dose curve; in most records, active means well fitted curve in the direction sought with a large enough effect in the signal ratio (not every such curve was filed as active); inconclusive means small, poorly fitted or top-dose-only effect, or a change in a side signal; inactive means flat fitted curve, though single readings scatter; the % refers to the signal ratio. A potency beside an inconclusive call is a rough fit, not a confirmed value.
# Experiment: IkB Signaling;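 on IkBa stabilization activation: 0% = basal untreated cells and 100% = reference inhibitor full response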
# Conditions: ABC-DLBCL IkBa-CBG/CBR dual luciferase ratio (green luciferase fused to IkBa over red control in OCI-Ly3 lymphoma cells), 4 h; IkBa stabilization activation: at 57.1 µM (top of the series), scaled: untreated 0%, proteasome inhibitor 100% unless noted
# Summary of the method: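 Luminescence ratio of IκBα-fused green versus native red beetle luciferase in OCI-Ly3 cells, 4 h post-doxycycline with compound; red signal alone, scaled from basal (0%) to zero light (-100%), flagged nonspecific or cytotoxic effects.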
# Potency means the concentration at half of the fitted maximal effect.
SMILES,IkBa stabilization activation,Potency
O=C1C2C3CCCC3=C3CCCC3C2C(=O)N1c1cccc(Cl)c1 (stereo not drawn),inactive,–
COc1ccc2nc(N(Cc3cccnc3)C(=O)c3ccc(Cl)cc3)sc2c1,inactive,–
COC(=O)c1ccc2c(c1)N(CC(=O)Nc1ccc(C)c(C)c1)C(=O)c1ccccc1S2,inconclusive: 1.49% [signal inhibitor],–
Cc1csc(NC(=O)C2CCCN(S(=O)(=O)c3ccc(Br)s3)C2)n1 (stereo not drawn),inconclusive: -0.756% [signal inhibitor],–
Oc1ccccc1-c1cc(-c2ccc3c(c2)OCCO3)n[nH]1,–,"inconclusive: 3.98 µM [signal inhibitor, single point]"
Cc1ccc2nc(Nc3cccc(C(F)(F)F)c3)c3nnnn3c2c1,–,inconclusive: 10 µM [signal inhibitor]
CN(C)S(=O)(=O)c1cccc(C(=O)OCC(=O)Nc2sccc2C(N)=O)c1,inconclusive: 3.56% [signal inhibitor],–
O=C(Nc1cnc2ccccc2c1)C1COc2ccccc2O1 (stereo not drawn),inconclusive: 5.58% [signal inhibitor],–
CCCCS/C(=C(/C#N)C(N)=O)c1cc2c([nH]1)CCCC2,inconclusive: 14.6% [signal inhibitor],–
CCC(=O)Nc1ccc(NC(=O)c2ccccn2)cn1,–,"inconclusive: 25.1 µM [signal inhibitor, partial curve]"
Cc1ccc(NC(=O)Cn2c(=O)n(CC(=O)NCCc3ccccc3)c(=O)c3ccccc32)cc1,inconclusive: -0.413% [signal inhibitor],–
CSc1nc(NCc2ccco2)c2c3c(sc2n1)CN(C)CC3,inconclusive: 14.2% [signal inhibitor],–
COc1ccc(CNC(=O)CCc2c(C)nc3c4cccnc4nn3c2C)cc1,inconclusive: 0.313% [signal inhibitor],–
COc1ccc(CC(=O)Nc2nnc3n2CCS3)cc1OC,inconclusive: 0.041% [signal inhibitor],–
COc1ccc(C)cc1-n1c(SCC(=O)NCc2ccco2)nc2c([nH]c3ccccc32)c1=O,inconclusive: 4.34% [signal inhibitor],–
CN1CCN(c2ncc3nc(-c4cccc(C#N)c4)c(=O)n(C)c3n2)CC1,"inactive: -1.39% [at 11.4 µM, scaled: untreated 0%, proteasome inhibitor 100%]",–
O=C(CN1C(=O)COc2ccc(Cl)cc21)Nc1cccc(C(=O)O)c1,inactive,–
COCCNC(=O)c1cc(-c2cccc(Cl)c2)on1,inactive,–
O=C(Nc1ccc(Br)cc1)c1cc(S(=O)(=O)N2CCc3ccccc32)ccc1F,inconclusive: 16.1% [signal inhibitor],–
CCn1c(=O)c2sccc2n2c(CCCC(=O)Nc3ccc(Oc4ccccc4)cc3)nnc12,inconclusive: 1.55% [signal inhibitor],–
COc1ccc(-c2nc(-c3ccccc3)no2)c(OC)c1,–,"inconclusive: 6.31 µM [signal inhibitor, partial curve]"
COc1ccc(OC)c(NC(=O)N2CCC3(CC2)Oc2ccccc2C(=O)N3Cc2ccccc2F)c1,inconclusive: -0.557% [signal inhibitor],–
COc1ccc(-c2noc(CC(=O)N(C)c3cc(Cl)c(OC)cc3OC)n2)cc1,inconclusive: -0.303% [signal inhibitor],–

SMILES,IkBa stabilization activation,Potency
CCCCN(C)C(=O)c1ccc2c(c1)NC(=O)C(CC(C)C)N2 (stereo not drawn),inconclusive: 1.84% [signal inhibitor],–
COCC(=O)N1CCC2(CC1)CN(C(=O)Nc1ccccc1)C2,"inactive: 0.424% [at 11.4 µM, scaled: untreated 0%, proteasome inhibitor 100%]",–
Cc1ccc(NC(=O)c2nc(S(C)(=O)=O)ncc2N(Cc2ccco2)Cc2ccco2)cc1,inconclusive: 3.41% [signal inhibitor],–
Cc1ccc(OCCSc2nc3ccccc3n2CCC(=O)O)cc1,inconclusive: -1.28% [signal inhibitor],–
Cc1ccc(-c2nc(-c3cccs3)c(-c3cccs3)[nH]2)cc1,inconclusive: 2.68% [signal inhibitor],–
O=C1CN2CCN(CC2)CC(=O)Nc2ccc(cc2)S(=O)(=O)c2ccc(cc2)NC(=O)CN2CCN(CC2)CC(=O)Nc2ccc(cc2)S(=O)(=O)c2ccc(cc2)N1,"inactive: -0.0801% [at 11.4 µM, scaled: untreated 0%, proteasome inhibitor 100%]",–
Cc1cc(C)cc(OCC(=O)N(Cc2ccco2)Cc2ccccc2Cl)c1,inconclusive: 4.15% [signal inhibitor],–
CCOC(=O)N1CCN(C(=O)Nc2ccc(Cl)cc2)CC1,inactive,–
CC(C)NC(=O)c1cc(C(=O)c2cc(Cl)ccc2O)coc1=N,inconclusive: 13.5% [signal inhibitor],–
COCCn1c(=O)c(-c2ccc(OC)cc2)nc2cnc(N3CCOCC3)nc21,"inactive: -0.941% [at 11.4 µM, scaled: untreated 0%, proteasome inhibitor 100%]",–
CCOC(=O)c1ccc(NC(=O)c2cc(=O)c3ccc(C)c(C)c3o2)cc1,inactive,–
O=C(COc1ccc(Br)cc1CO)Nc1ccccc1F,–,"inconclusive: 25.1 µM [signal inhibitor, partial curve]"
CC(=O)N1CCc2cc(Br)cc(S(=O)(=O)CCC(=O)N3CCN(c4cccc(C)c4C)CC3)c21,inconclusive: 0.194% [signal inhibitor],–
COc1ccc(C(=O)N2CCN(C3CCC(c4ccccc4)CC3)CC2)cc1OC (stereo not drawn),inconclusive: 1.77% [signal inhibitor],–
CC(C)(C)C1CCc2c(sc(NC(=O)c3cc(-c4ccc(F)cc4)on3)c2C#N)C1 (stereo not drawn),–,inconclusive: 31.6 µM [signal inhibitor]
Cc1c(-c2ccccc2)nc(N)c(C#N)c1-c1ccco1,inactive,–
C=CCn1cnc2c(c1=O)c1nc3ccccc3nc1n2/N=C/c1cc(OC)c(OC)c(OC)c1,inactive,–
CSc1cccc(Nc2cc(C(=O)NC3CCCCC3)c3ccccc3n2)c1,–,"inconclusive: 0.501 µM [signal inhibitor, full curve]"
CCOC(=O)C1=C[C@@]2(CC)CCCN3CCc4c(n1c1ccccc41)[C@H]32,inactive,–
COc1cccc(-c2noc(-c3cc4ccccc4oc3=O)n2)c1OC,–,"inconclusive: 39.8 µM [signal inhibitor, single point]"
COc1ccc(C(c2nnnn2C2CCCCC2)N2CCN(c3ccc(OC)cc3)CC2)cc1 (stereo not drawn),inactive,–
Nc1nonc1-c1nc2ccccc2n1CC(=O)Nc1cccc(C(F)(F)F)c1,inconclusive: 0.985% [signal inhibitor],–
COc1ccc(C)cc1NC(=O)CSc1ncc2c(n1)-c1ccc(Cl)cc1N(Cc1ccccc1)S2(=O)=O,inactive,–

SMILES,IkBa stabilization activation,Potency
CC1=C(C(=O)Nc2ccccc2)C(c2ccc(F)cc2)n2nc(SCc3cc(C)ccc3C)nc2N1 (stereo not drawn),inactive,–
Cc1cc(C)n(-c2nc3ccccc3c(=O)n2OCC(=O)Nc2c(C)cccc2C)n1,inactive,–
COCCn1c(C)cc(O)c(C(c2ccccc2)N2CCCCC2)c1=O (stereo not drawn),inconclusive: -1.49% [signal inhibitor],–
CCc1ccccc1NC(=O)N1CCN(Cc2nc3ccc(C)cc3o2)CC1,inconclusive: 1.98% [signal inhibitor],–
Cc1ccc(-n2ncc3c(Nc4ccc(Oc5ccccc5)cc4)ncnc32)cc1,inconclusive: -1.04% [signal inhibitor],–
CCOC(=O)c1nc(S(C)(=O)=O)ncc1N1CCOCC1,inactive,–
Cc1c(C(=O)Nc2cccc(C(F)(F)F)c2)sc2nc3n(c(=O)c12)CCC3,inconclusive: 2.25% [signal inhibitor],–
CC(C)Cc1nn2c(=O)cc(COC(=O)c3cccc(NC(=O)c4ccccc4)c3)nc2s1,inconclusive: 11.1% [signal inhibitor],–
Cc1cccc(N2CCN(C(=O)c3cc4ccc5cccnc5c4[nH]3)CC2)c1C,inconclusive: 0.169% [signal inhibitor],–
C=CCOC(=O)C1=C(C)NC(SC)=C(C#N)C1c1ccc(OCC)cc1 (stereo not drawn),inconclusive: 0.377% [signal inhibitor],–
CCC(C)[C@@H](C(=O)Nc1ccc2c(c1)OCO2)N1Cc2ccccc2C1=O (stereo partly drawn),inconclusive: 0.157% [signal inhibitor],–
Cn1ccnc1SCc1cn2cc(Br)ccc2n1,inactive,–
O=C(Nc1nnc(CCN2CCCCC2)s1)C1CCCCC1,inactive,–
CCN1C(=O)C(Cc2nc3ccccc3c(=O)n2-c2cccc(C)c2)c2ccccc21 (stereo not drawn),inactive,–
CC(C)Oc1ccc(C(=O)NCCc2csc(-c3cccc(F)c3)n2)cc1,inconclusive: 2.51% [signal inhibitor],–
Cc1ccccc1NC(=O)c1c(C)oc2ccc(O)c(CN(C)Cc3ccccc3)c12,inconclusive: 5.62% [signal inhibitor],–
CCCCCn1c(CCCNC(=O)c2ccccc2)nc2ccccc21,inconclusive: 8.94% [signal inhibitor],–
COc1cccc(NC(=O)Cn2c(=O)n(-c3ccc(C)cc3)c(=O)c3ccccc32)c1,inconclusive: 11.5% [signal inhibitor],–
CCCC(=O)N1c2nc(-c3ccco3)nn2C2(CCCCC2)[C@@H]2CCCC[C@@H]21,inactive,–
CCN(CCCNC(=O)CCc1nc(-c2ccc(C)cc2)no1)c1cccc(C)c1,inconclusive: 3.42% [signal inhibitor],–
Cc1ccc(-c2noc(CN(C(=O)c3cccs3)C(C)C)n2)cc1,inconclusive: 2.5% [signal inhibitor],–
Cc1cc(NC(=O)c2ccc(S(=O)(=O)N(C)C)cc2)no1,inactive,–

# — PubChem BioAssay AID445 (National Center for Advancing Translational Sciences (NCATS), 2006)
